# According to the supplement of paper PMC11417369:
# ± gives the standard deviation of the averaged measurements. The list shows a part of the results.
# Test system: PfAP2-I AP2 domain 3 (GST-tagged)
# Test: gcPBM binding intensity (ln(normalized median fluorescence intensity)); higher = stronger DNA binding
# Method in brief: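 In this array assay, P. falciparum DNA-binding domains with a GST tag, expressed in E. coli, were applied for 1 h to primer-extended double-stranded 36-bp intergenic genomic probes and negative controls on an Agilent 4 × 180k array. Bound protein was visualised with Alexa488 anti-GST antibody at 488 nm. Binding intensity is the highest Masliner-normalised natural-log median intensity across replicate spots of either probe orientation.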
row,Sequence,gcPBM binding intensity (ln)
1,CACGAAAAAAAAAAATGTACATAAAAATATGATACA [XGTACX_site2536],7.54 ± 0.3
2,AAAAAAAAAAAAAAAAAAAAAGGACGGATGGATGGA [GTGCAC_negctrl_site527],9.53 ± 0.23
3,TCTCATTTCAACAACAGTACATATCTATCTGTGTAT [XGTACX_site6897],7.66 ± 0.7
4,GAAAGAGAAATATATACACACATATTTATATTTTTA [CACACA_site2066],7.58 ± 0.45
5,AAATTATAAGTAAAAAGTACTTAATATATAATAAAC [XGTACX_site6065],7.91 ± 0.45
6,CTTATACTTCTACATCGTACAAAAGATGGTATAATT [XGTACX_site2698],7.64 ± 0.52
7,AAAAAAAAAAAAAATAGTACGTAACTATAATTTCCT [XGTACX_site2457],8.09 ± 0.49
8,TATAATTTTTTTTGGGTGCTTGGGTAAATTTTATTA,8.34 ± 0.42
9,TAACTTAAATAATACATACACACATGTACATACAGA [CACACA_site1594],7.71 ± 0.36
10,AATTATATATTATCATGTACAAATATAGTAATACAA [XGTACX_site6845],7.64 ± 0.48
11,AAATTTATATAAAACAGTACAATTAAAAAAAAAATA [XGTACX_site8015],7.67 ± 0.5
12,GAAACGTTTTTGAGTAGTACACACACAATAAGGATG [XGTACX_site6809],8.3 ± 0.43
13,ATATAAATATAAACATGTACATATATATATATATAT [XGTACX_site2824],9.36 ± 0.26
14,ATTTTTTTATAAAATTTTTTATATATTAAATATTAT [CACACA_negctrl_site135],7.38 ± 0.6
15,ACGTTTTATTTTTATTGTACTCACATTGAAATGAAT [XGTACX_site6094],8.25 ± 0.37
16,TTTGTAATAACATATGCATGTTCAAAAAATAAAATA [TGCATGCA_site817],7.6 ± 0.65
17,ATATATTTATACATTTGTACATATACATATTTCTGA [XGTACX_site3982],7.78 ± 0.57
18,AAAATTGTGCTTTCACGGACACAAGATCGAAATAGA [XGTACX_site4068],8.62 ± 0.16
19,AAAAATATAAACTGCACACACAAAAAAAAAAGAGAA [CACACA_site1367],8.74 ± 0.13
20,ACATTAATATAAAGCACACATATATATAATATATAT [CACACA_site508],9.89 ± 0.47
21,ATTGATTTTTAATATACACACATAAGTACCACAAAA [CACACA_site339],8.46 ± 0.2
22,TATAACATATTTATATATGACATTATCTATTCATTT [CACACA_negctrl_site864],7.21 ± 0.53
23,CATGATATATAAATATGTACATATATATATATATAT [XGTACX_site1760],9.47 ± 0.49

row,Sequence,gcPBM binding intensity (ln)
1,TAATAATAATATAAAATACACACCTATTATTTTTAC [CACACA_site4003],7.74 ± 0.35
2,CAATATTATTATATTTGTACACATGCGTATTTTTTA [XGTACX_site4154],7.74 ± 0.47
3,CCCGTAAATACAAAAAGTACAAAAGTTCATCTTATA [XGTACX_site1154],7.93 ± 0.99
4,ATATTATGTGATTGTGCACACTGGAGATTTTTTTTA [CACACA_site1453],10.9 ± 0.17
5,TTAATATTGTATCCAAGTACACAAATTATTATATTT [XGTACX_site8067],7.76 ± 0.24
6,ATGTAACACATATTTGGTACAGATAGATAAAAGTAT [XGTACX_site8291],8.14 ± 0.66
7,TTTTTAAATAACCTATATATTATTATGAAACATAAA [CACACA_negctrl_site916],7.45 ± 0.33
8,GTATAATATATTTATAGTACATAATTATTTATAAAT [XGTACX_site1826],7.74 ± 0.4
9,TATATATATATATTCACACATAAAAATAAAATAAAA [CACACA_site4774],9.2 ± 0.13
10,ATATATATATATGTGTGTACTTATTTATTTATTTGT [XGTACX_site549],9.56 ± 0.38
11,TAATAAATCCTATATAGTACATATATGCAAGTATGT [XGTACX_site3955],10.3 ± 0.29
12,TTTTCTTAATATTTATGTATATATATAATATGATAT [TGCATGCA_negctrl_site572],7.57 ± 0.52
13,TTATTTGTTTAATATGCATGCTAAAAGGGTTGATGT [TGCATGCA_site581],8.24 ± 0.51
14,ATTTTACATATTTGCACACATATATTTATATACATA [CACACA_site854],10 ± 0.26
15,AATATAAAAATGCACACACACAAAAAAAAAAAAAAA [CACACA_site6546],9.03 ± 0.16
16,GAGTAAAACAAATATACACACCATAAAGTTATAAAA [CACACA_site5008],7.79 ± 0.61
17,AATTTAAATTCATCACGTACATACGTGAATATACAC [XGTACX_site5220],8.05 ± 0.37
18,CATAAAAATGTATCAAGTACACATTTATTTATCCAT [XGTACX_site152],7.7 ± 0.46
19,TACAGATAAAAGTACACACACACACCGATATATATA [CACACA_site4675],8.31 ± 0.64
20,GTATAACACAAGTGAAGTACAGGGGTAAACATTTAT [XGTACX_site3203],8.1 ± 0.66
21,TTAAAATAAAGAGCAGTGCGCATATTTTGTTATTAT [GTGCAC_site9753],8.24 ± 0.63
22,ATAAAAAAATATGTAAACATATATATGTATTTATGT [CACACA_negctrl_site1517],7.54 ± 0.5
23,TTTTTTTTTAAAGAAAATAAAAATATGTACTTGACA [CACACA_negctrl_site1113],7.61 ± 0.31

row,Sequence,gcPBM binding intensity (ln)
1,AAACAATTTTTATTTTGTACATAACAATATATTTAT [XGTACX_site1375],7.67 ± 0.35
2,TTTTTATATTTTATTAGTACTTATTATATATATAAT [XGTACX_site4900],7.82 ± 0.52
3,AAATACATATATACATGTACATAAATATATATATAT [XGTACX_site5367],9.08 ± 0.14
4,ATAGATATACATATCACACATATATATATATATATA [CACACA_site4985],9.19 ± 0.65
5,TAAGGTAGTTCTGTATCACACACATATATATATATA [CACACA_site8693],9.46 ± 0.57
6,AATCCATTCTATTTTTTACACACGTATGTAAATATT [CACACA_site8860],7.9 ± 0.69
7,TGAGAAAGCGCATATTGTACTATATATTTTAACCAC [XGTACX_site4098],8.06 ± 0.52
8,GAAAATAATGTTACATGTACGAATATGTAACTATTG [XGTACX_site6833],7.68 ± 0.5
9,AATATATATGGACATGCATGGACATAATAATCTATT [TGCATGCA_site838],7.59 ± 0.61
10,GATATACAATTTAAGTGTACTATAATAAAATATATA [XGTACX_site3013],7.79 ± 0.071
11,ATAAAAAAATATAAATGTACATATATATATATATAT [XGTACX_site5620],9.52 ± 0.62
12,ATTTATCTATATATATGTACATATTATTTTTGTGGT [XGTACX_site7390],7.92 ± 0.49
13,TATATTAATTCGTTTTGTACACACATAATGAATAAT [XGTACX_site4618],7.79 ± 0.26
14,ATTAAATAAAATCATGCACACAATATATATTTTAAG [CACACA_site2495],8.37 ± 0.25
15,ATAAGCATCTTTTGTGTGCACATAACAAAAAAAAAA,9.95 ± 0.057
16,TTTAAAATATTGTATTGTACGCAATAAAAAATACCA [XGTACX_site182],8.13 ± 0.21
17,TCTAACATATCTTTAATACACACTTAAAAAAGTACT [CACACA_site652],7.88 ± 0.39
18,TACACCATGATACATACACACAGACATATACTCATT [CACACA_site4708],8.04 ± 0.43
19,TCCAAATGTTTGCGTTGTACTCTTTTTTTAAAACTA [XGTACX_site5148],7.95 ± 0.52
20,ATAACCACATAAAATATAATTATATATATATATATA [CACACA_negctrl_site603],9.36 ± 0.36
21,CCTGAAATTTTATTATGTACATATTATAAAATGATT [XGTACX_site1434],7.75 ± 0.31
22,TGGCACTAAAAAAATAAACACACAGATTTATATAAT [CACACA_site8386],7.62 ± 0.6
23,ATTCCTCCCATGGAATGTACTCATCAAATAAATAAA [XGTACX_site6543],7.72 ± 0.39

row,Sequence,gcPBM binding intensity (ln)
1,TTTATTAATAAGAAATGTACACAAAATTATTTCCAA [XGTACX_site5970],7.75 ± 0.49
2,ATAGAGTCATTCCTCACACACACGCTATATGAATAG [CACACA_site2047],7.95 ± 0.79
3,TAATTAAAATTAAGAAGTACATTTTACTTTTAATGC [XGTACX_site5120],7.61 ± 0.63
4,AAAAAATACTTATAAAGTACTAATATATATAAGCAG [XGTACX_site743],7.94 ± 0.41
5,AATACAAACCAAAAAGTAAATACATCAACATGATCA [CACACA_negctrl_site140],7.42 ± 0.48
6,GAGAAATTTATACATACACACATATATATATTATAT [CACACA_site4038],7.78 ± 0.52
7,TATCATGTTTTTATGGTGCATGAAATCACACATTGA,9.54 ± 0.33
8,TATTTTTTCCTTTGTTTTTTAAACTATCTTAACTAA [XGTACX_negctrl_site519],7.8 ± 0.49
9,AAATAAATAAAAAACACACACAAATAAATAAATATA [CACACA_site2249],7.61 ± 0.55
10,TAAAAAATGATAGAAGTGCATAAAATAATATATATA [GTGCAC_site9904],10.4 ± 0.13
11,ATATAATAAATATATTGTACATATGAATCTACTAAA [XGTACX_site7610],7.61 ± 0.54
12,AAAAAATTCCTATATACACACACGCACATATTTATA [CACACA_site6192],7.89 ± 0.66
13,TTTCTATTTCCTTCACATCTTTTCATCTTTTTTTTT [CACACA_negctrl_site1110],7.94 ± 0.54
14,GACTTGAAGAAATAAGTGCAGAGTTTTATTTTAATT [GTGCAC_site9912],8.44 ± 0.34
15,AAGGAATATATATACATACACACATATATATATATA [CACACA_site1665],9.24 ± 0.42
16,AGTGGATGAGGACATACACACACACCGAAGTTGATA [CACACA_site9132],7.63 ± 0.54
17,AAAAAAAAAAAAAAAAAAAAAAATATATATATATAT [XGTACX_negctrl_site33],9.575 ± 0.064
18,AAATTTTCATGTGTTGCATGCTGAACTATTTTATCA [TGCATGCA_site856],7.58 ± 0.81
19,AATAAAAAGGAAAGGTATATGTGTGCCCTTGTGTTA [TGCATGCA_negctrl_site83],8.35 ± 0.47
20,GAAATTTTTAATGTGGTGCACAGGAAATTTTTTCTT,10.66 ± 0.064
